Test results reported in publication PMC4336329 (PLoS ONE, 2015).
Screen size: about 310,000 compounds; about 2,200 (0.71%) showed an effect of 50% or more. The effect is printed as a negative number. This is one part of the list.

Target: human ether-à-go-go-related gene (hERG) potassium channel (human, UniProt Q12809)
Assay: primary screen, population patch clamp on CHO cells stably expressing hERG

human ether-à-go-go-related gene (hERG) potassium channel, sequence (Q12809 whole entry, looked up): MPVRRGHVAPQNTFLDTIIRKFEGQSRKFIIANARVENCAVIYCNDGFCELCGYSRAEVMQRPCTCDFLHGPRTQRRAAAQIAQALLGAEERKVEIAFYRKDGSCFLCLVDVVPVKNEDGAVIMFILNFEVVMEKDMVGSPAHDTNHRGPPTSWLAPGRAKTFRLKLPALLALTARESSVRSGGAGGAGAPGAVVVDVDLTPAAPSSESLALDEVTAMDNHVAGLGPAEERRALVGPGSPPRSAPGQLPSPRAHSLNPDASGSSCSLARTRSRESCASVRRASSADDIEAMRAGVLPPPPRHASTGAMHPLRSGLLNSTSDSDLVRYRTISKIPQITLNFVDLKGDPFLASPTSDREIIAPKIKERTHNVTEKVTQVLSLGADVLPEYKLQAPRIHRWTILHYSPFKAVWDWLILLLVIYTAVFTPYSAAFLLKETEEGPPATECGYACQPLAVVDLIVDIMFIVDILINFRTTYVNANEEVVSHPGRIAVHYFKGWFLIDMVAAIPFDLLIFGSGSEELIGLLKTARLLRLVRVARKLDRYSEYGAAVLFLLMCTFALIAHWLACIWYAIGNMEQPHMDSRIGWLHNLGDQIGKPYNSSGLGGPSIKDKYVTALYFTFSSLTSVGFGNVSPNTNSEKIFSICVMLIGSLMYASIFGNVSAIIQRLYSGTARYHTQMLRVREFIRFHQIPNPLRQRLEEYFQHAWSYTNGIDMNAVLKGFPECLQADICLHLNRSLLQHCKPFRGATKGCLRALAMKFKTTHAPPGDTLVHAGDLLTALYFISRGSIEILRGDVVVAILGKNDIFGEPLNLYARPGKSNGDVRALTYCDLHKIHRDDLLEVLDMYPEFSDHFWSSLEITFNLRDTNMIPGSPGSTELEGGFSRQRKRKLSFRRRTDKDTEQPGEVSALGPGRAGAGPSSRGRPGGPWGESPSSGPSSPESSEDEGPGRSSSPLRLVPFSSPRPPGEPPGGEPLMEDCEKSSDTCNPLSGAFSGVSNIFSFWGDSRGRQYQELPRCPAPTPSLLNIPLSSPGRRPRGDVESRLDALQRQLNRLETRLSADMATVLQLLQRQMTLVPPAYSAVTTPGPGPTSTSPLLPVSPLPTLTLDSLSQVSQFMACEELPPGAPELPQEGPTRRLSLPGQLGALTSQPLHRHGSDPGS

In order of rising “hERG current change (%, negative = inhibition) at 1uM” value:
1. O=C(Cn1c(=O)c2cccn2c2cccnc21)NCCCN1CCN(c2ccc(F)cc2)CC1  -48.6%
2. CC(=O)c1cc(CN2CCN(Cc3ccc(C)cc3)C(CCO)C2)cs1 (centres unmarked)  -33.2%
3. COc1ccc(C2c3ccc4ccccc4c3Oc3ncn(CCCN(C)C)c(=N)c32)cc1 (centres unmarked)  -29%
4. COc1ccc(CNc2ncc(-c3ccc(Cl)cc3)n2C)c(OC)c1OC.O=C(O)C(=O)O  -17.8%
5. COc1ccccc1C(=O)NCC(=O)N/N=C/c1cccc(Cl)c1  -14.8%
6. CCOC(=O)CNc1c(-c2ccc(Cl)cc2)nc2cnccn12  -11.5%
7. CC1=C/C(=N\NC(=O)c2ccccc2)CC1  -7.9%
8. Cl.O=C(NCC(c1cccs1)N1CCOCC1)c1ccc(Cl)s1 (centres unmarked)  -7.66%
9. COC(=O)c1cc(Br)c(=O)n(-c2ccccc2F)c1  -6.37%
10. O=C(CN1C(=O)NC2(CCCC2)C1=O)NNC(=O)c1ccc(Cl)cc1  -4.29%
11. Cl.O=C(c1cccs1)c1coc2ccc(O)c(CN(CCO)CCO)c12  -3.86%
12. O=S(=O)(Nc1cc(S(=O)(=O)N2CCOCC2)ccc1NCC1CCCO1)c1ccccc1 (centres unmarked)  -2.27%
13. COc1ccccc1NC(=O)CCCc1nc(-c2ccc(OC)c(OC)c2)no1  -2.19%
14. CCOC(=O)c1c(C)[nH]c(C)c1S(=O)(=O)N(C)CC(=O)Nc1cc(C)ccc1OC  -1.18%
15. O=c1c(-c2ccccc2)coc2c(CN3CCOCC3)c(O)ccc12  -0.6%
16. CN(C)CCNc1oc(COc2ccc(Cl)cc2)nc1C#N  -0.147%
17. CCCn1nnc(NC(=O)COc2ccc(CC)cc2)n1  0.793%
18. CCN(CC)CCOc1ccc2c(c1)C(=NO)c1cc(OCCN(CC)CC)ccc1-2.Cl  1.1%
19. COc1cc2oc(=O)ccc2cc1[C@@H](O)[C@@H]1OC(C)(C)OC1(C)C  1.99%
20. Cc1ccc(Nc2nc3ccccc3s2)c(C)c1  2.26%
21. CCCCN1C(=O)NC(NS(=O)(=O)c2ccc(N)cc2)(C(F)(F)F)C1=O (centres unmarked)  2.31%
22. COc1ccc(CNC(=O)Cc2csc(Nc3nc(=S)[nH]c4ccccc34)n2)cc1  4.29%
23. Cc1ccc2c(c1)c1c3n2CCN(C(=O)CN2CCN(C)CC2)C3CCC1 (centres unmarked)  4.91%
24. COc1cc(C(=O)NC(C)CCn2cccn2)ccc1OC1CCN(C(C)=O)CC1 (centres unmarked)  5.45%
25. O=C(Nc1cc(S(=O)(=O)N2CCOCC2)ccc1N1CCCC1)C1CC1  5.53%
26. Cc1ccc(NC(=O)COC(=O)CCc2c(C)nc3nc(N)nn3c2C)cc1C  5.67%
27. Cc1ccc(C)c(C(=O)CN2C(=O)C(=O)N(C3CCCC3)C2=O)c1  6.11%
28. O=C(Nc1cccnc1)c1ccc(S(=O)(=O)N2CCCCCC2)cc1  6.27%
29. CC(C)(C)OC(=O)[C@H](Cc1ccccc1)NC(=O)c1nc[nH]c1C(=O)NCCCCC[NH3+].[Cl-]  6.62%
30. CCOC(=O)N1CCN(c2c(NCC3CCCO3)c(=O)c2=O)CC1 (centres unmarked)  6.68%
31. CN(C(=O)c1ccco1)c1nc(-c2ccc(F)cc2)cs1  6.7%
32. O=C1c2cccnc2C(=O)N1c1cccc(-c2nc3ccccc3o2)c1  8.94%
33. O=C(c1ccccc1)c1cc(-c2ccccc2)on1  9.31%
34. CC(C)c1ccc(NC(=O)C(c2ccc3c(c2)OCO3)N2CCCCC2)cc1 (centres unmarked)  9.37%
35. Cn1c(SCC(=O)Nc2ccccc2[N+](=O)[O-])nnc1C(F)(F)F  9.39%
36. COC(=O)c1nnn(-c2nc(N3CCOCC3)nc(N3CCOCC3)n2)c1C  9.72%
37. COc1ccc(N2CCN(S(=O)(=O)c3ccc(OC)c(C(=O)N4CCCCC4)c3)CC2)cc1  10%
38. O=C(Cc1ccccc1)Nc1ccc2c(c1)OC1(CCCC1)O2  10.2%
39. O=C(CCCN1C(=O)c2cccc3cccc(c23)C1=O)N1CCN(c2ccccc2)CC1  11.6%
40. Cc1ccccc1CNC(=O)CC1C(=O)NCCN1Cc1c(F)cccc1Cl (centres unmarked)  11.7%
41. COc1ccc(S(=O)(=O)N2CCC(C(=O)N[C@H](C(=O)NCc3ccco3)C(C)C)CC2)cc1  11.8%
42. Cc1ccccc1N1CCN(C2CCCN(C(=O)CCC(=O)N(C)C)C2)CC1 (centres unmarked)  12.3%
43. Cc1ccc(C(=O)CC(=O)c2ccccc2)cc1  12.8%
44. O=C(/C=C/c1ccccc1[N+](=O)[O-])Nc1ccccc1  13%
45. CCO/N=C/C(=O)Nc1ccc(F)cc1F  13.3%
46. COc1ccc(-n2c(=S)[nH]c3cc(C(=O)O)ccc3c2=O)cc1  13.6%
47. CC(C)CCNC(=O)c1ccc(NC(=O)C2=CSCCO2)cc1  13.7%
48. CCc1nc2ccccc2c(=O)n1NC(=O)c1c(O)c2ccccc2[nH]c1=O  14.2%
49. COc1ccc2nc(NC(=O)c3cnccn3)sc2c1  14.5%
50. CCCc1nc2oc3ccccc3c(=O)c2c(=O)n1-c1ccccc1  14.5%
51. CCNc1nc(N)c(C(=O)c2ccc(Cl)s2)s1  15.6%
52. Cc1ccc([N+](=O)[O-])c2cccnc12  16.1%
53. COc1ccc(CCC(=O)NC2CCC(C)CC2)cc1 (centres unmarked)  16.4%
54. CC(C)(C)c1ccc(OC(=O)c2ccccc2)cc1  16.6%
55. O=C(COC(=O)CCNS(=O)(=O)c1ccc2c(c1)OCCO2)NC1CCCc2ccccc21 (centres unmarked)  17.4%
56. COCCCNC(=O)c1ccc2nc3ccccc3c(=O)n2c1  18.8%
